Results published in the supplement of paper PMC10723795.
Structures can show the parent of a compound that is named as a salt. The list shows a part of the results.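 Rule for the calls: active = more than 2 SD below the DMSO mean: under 0.85 at 10 µM or 0.885 at 1 µM; inactive = the rest.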 Many values rest on one well or one pass, so single values are uncertain. Where a SMILES comes first, the peptide text is derived from it. The star is where a group is joined. Cbz = O=C(OCc1ccccc1)*

Test system: RPE1
Assay: nucleolar normality score relative to DMSO (fraction of DMSO control); RPE1 is a non-cancer human cell line; higher = more normal nucleoli (less nucleolar stress)
Settings: 24 h
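Note: fixed cells immunolabelled for nucleolin and UBF, 40 image fields per well in 384-well plates, per-cell score = nucleolin nucleolar/nucleoplasm intensity ratio divided by the matching UBF ratio.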

SMILES	nucleolar normality score (1 µM)	nucleolar normality score (10 µM)
COC(=O)c1cc(O)c(O)c(O)c1 [Methyl gallate]	inactive: 1.02	inactive: 0.902
N#Cc1ccc(-c2c(-c3ncn[nH]3)sc(N3CCOCC3)c2C#N)c(F)c1	active: 0.877	inactive: 0.956
O=C(c1ccc(C(=O)N2CCC(N3CCCC3)CC2)c(Nc2ccccc2)c1)N1CCC(N2CCCC2)CC1	inactive: 1.04	inactive: 0.905
N#CCC1(n2cc(-c3ncnc4[nH]ccc34)cn2)CN(C2CCN(C(=O)c3ccnc(C(F)(F)F)c3F)CC2)C1	inactive: 0.975	inactive: 1.01
Cn1ncc(Cl)c1-c1cc(C(=O)N[C@H](CN)Cc2ccc(F)c(F)c2)oc1Cl	inactive: 1	inactive: 1
C[C@H](NC(=O)CCC(F)(F)F)C(=O)N[C@@H]1C(=O)N(CCO)c2ncccc2-c2ccccc21	active: 0.839	inactive: 0.872
CC(C)(C#N)c1ccc(N2C(=O)OCc3cnc4ccc(-c5cnc6ccccc6c5)cc4c32)cc1	inactive: 0.991	inactive: 0.911
COC(=O)C1=CO[C@@H](O[C@@H]2O[C@H](CO)[C@@H](O)[C@H](O)[C@H]2O)[C@@H]2[C@@H](C)[C@@H](O)C[C@H]12 [Loganin]	inactive: 1.06	inactive: 0.913
CC(C)C[C@@H](C=O)NC(=O)[C@H](CC(C)C)NC(=O)[C@H](CC(C)C)NC(=O)OCc1ccccc1 (Cbz-Leu-Leu-Leu-aldehyde)	inactive: 1.05	inactive: 0.896
COc1ccc(-n2c(C)c([N+](=O)[O-])c3ccc(O)cc32)cc1	inactive: 1.01	inactive: 1.04
CC(C)C[C@H](NC(=O)[C@H](CCc1ccccc1)NC(=O)CN1CCOCC1)C(=O)N[C@@H](Cc1ccccc1)C(=O)N[C@@H](CC(C)C)C(=O)[C@@]1(C)CO1 [Carfilzomib (PR-171)]	active: 0.79	active: 0.693
COc1cc(OC)c(C=C2C(=O)Nc3ccccc32)c(OC)c1	inactive: 0.98	inactive: 1.04
O=Nc1c(-c2c(O)[nH]c3cc(Br)ccc23)[nH]c2ccccc12	active: 0.882	inactive: 0.957
CN(NC(=O)CC(=O)NN(C)C(=S)c1ccccc1)C(=S)c1ccccc1 [Elesclomol (STA-4783)]	active: 0.505	active: 0.592
C[C@H]1O[C@@H](O[C@H]2CC[C@@]3(C)[C@@H](CC[C@]4(C)[C@@H]3C=C[C@]35OC[C@@]6(CCC(C)(C)C[C@H]63)[C@@H](O)C[C@]54C)[C@]2(C)CO)[C@H](O)[C@@H](O[C@@H]2O[C@H](CO)[C@@H](O)[C@H](O)[C@H]2O)[C@H]1O [Saikosaponin A]	inactive: 0.964	inactive: 0.993
O=C(Cc1cccc(OC(F)(F)F)c1)Nc1ccc(CCCCc2nnc(NC(=O)Cc3ccccn3)s2)nn1	active: 0.805	active: 0.787
O=C(O)CCNc1cc(N2CCc3ccccc3CC2)nc(-c2ccccn2)n1	inactive: 0.972	inactive: 1
COc1cc(CNC(=O)CCCCC=CC(C)C)ccc1O [Capsaicin(Vanilloid)]	inactive: 1.03	inactive: 1.1
Cc1cc([N+](=O)[O-])ccc1NS(=O)(=O)c1cc(Cl)ccc1Cl	inactive: 0.932	inactive: 1.01

SMILES	nucleolar normality score (1 µM)	nucleolar normality score (10 µM)
COc1ccc(-c2cc(=O)c3c(O)cc(O)cc3o2)cc1 [Acacetin]	inactive: 1.01	inactive: 1.03
Cc1ccc(NC(=O)c2ccc(CN3CCN(C)CC3)cc2)cc1Nc1nc(-c2cccnc2)cs1 [Masitinib (AB1010)]	inactive: 1.03	inactive: 1.1
O=C(Nc1cc(C(F)(F)F)ccc1N1CCCCC1)c1ccncc1	inactive: 0.969	inactive: 1.01
O=C(CCNC(=O)c1ccc(OC(F)(F)F)cc1)N[C@@H]1CCCc2ccccc21	inactive: 1.05	inactive: 1.01
C[C@H]1[C@@H](O)O[C@@H]2O[C@@]3(C)CC[C@H]4[C@H](C)CC[C@@H]1[C@@]24OO3 [Dihydroartemisinin (DHA)]	inactive: 1.08	inactive: 1.12
CN(C)c1ccc(C(=O)NCCCCCCC(=O)NO)cc1	inactive: 1.1	inactive: 0.889
O=S(=O)(O)c1ccc2cc(N=Nc3cc(S(=O)(=O)O)c4cccnc4c3O)ccc2c1	inactive: 0.952	inactive: 0.997
COc1cc2c(Oc3ccc4[nH]c(C)cc4c3F)ncnc2cc1OCCCN1CCCC1 [Cediranib Maleate]	inactive: 1	inactive: 0.963
COc1cc2c(Oc3ccc4[nH]c(C)cc4c3F)ncnc2cc1OCCCN1CCCC1 [Cediranib (AZD2171)]	inactive: 0.957	inactive: 0.972
CN(C)c1nc(N(C)C)nc(N(C)C)n1 [Altretamine]	inactive: 1.04	inactive: 1.14
CCn1c(=O)c(-c2cc[nH]n2)cc2c(C)nc(N)nc21	inactive: 0.906	inactive: 0.98
COc1cc([C@@H]2c3cc4c(cc3[C@@H](O[C@@H]3O[C@@H]5CO[C@@H](C)O[C@H]5[C@H](O)[C@H]3O)[C@H]3COC(=O)[C@H]23)OCO4)cc(OC)c1O [Etoposide]	inactive: 1.03	inactive: 0.954
CCn1cc(-c2cccc(C(F)(F)F)c2)c2sc(C(=N)NC3CCS(=O)(=O)CC3)cc2c1=O	inactive: 0.934	inactive: 0.969
O=C(O)/C=C/c1ccc(O)cc1 [p-Coumaric Acid]	inactive: 1.05	inactive: 0.92
CC(=O)Nc1nc(C)c(-c2ccc(Cl)c(S(=O)(=O)NCCO)c2)s1	inactive: 1.02	inactive: 0.988
CCC1CC(=Cc2cccnc2)C(=O)C(=Cc2cccnc2)C1 (centres undefined)	inactive: 1	inactive: 1.1
C=CC(=O)Nc1cccc(Oc2nc(Nc3ccc(N4CCN(C)CC4)cc3OC)ncc2Cl)c1	active: 0.801	active: 0.842
CC(C)CC(CC(=O)NO)C(=O)N[C@@H](Cc1ccc2ccccc2c1)C(=O)N[C@@H](C)C(=O)NCCN (some centres undefined)	inactive: 0.934	inactive: 1.02
